# Results: the supplement of paper PMC8728848
# Some of the results follow.
# B1: F4 (Escherichia coli), A0A6L9DDF0 (protein)
# chain: MKKTLIALALAASAVSGMAHAWTSGDFNGTVDIGGSIDATNYRQKWEWEVGTGLNGFYNALSELTNNDTKLTITVTGNKPILLGRTKEAFVTPTAGGWGGIPQIAFTDYKGAPVELKNPDGETNKGLAYFVLPMKNADGTEAGSVRVNASYAGAVVEKTSDSSAKLFSAYAGEVIRIFNGGLPVNVTQSELQSGVAAADRTALFGSLGKADLVAQFQAVIPGATVTDGTSSEHCTMRLLASAAYALGIADGQTIEATFNQAVTTSTQWSAPLNVAITYY
# Tests used:
# Experiment in all cases: glycan array binding signal (z-score within array); higher = stronger binding
# Conditions in all cases: glycan notation: IUPAC condensed, linker removed
# [1] = target: Man(a1-3)[Man(a1-6)]Man(a1-6)[Man(a1-2)Man(a1-3)]Man(b1-4)GlcNAc(b1-4)GlcNAc
# In short: (§1)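 Columns mapping to the same glycan were averaged after glycan names were converted to IUPAC-condensed notation. The data come from 3228 arrays in the Consortium for Functional Glycomics database, limited to those with an available protein sequence. Binding is reported as a within-array Z-score averaged across arrays of one protein sequence and across linkers.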
# [2] = target: Man(a1-3)[Man(a1-6)]Man(a1-6)[Man(a1-3)]Man(b1-4)GlcNAc(b1-4)GlcNAc
# In short: as §1
# [3] = target: Man(a1-3)[Man(a1-6)]Man(b1-4)GlcNAc(b1-4)GlcNAc
# In short: as §1
# [4] = target: Man(b1-4)GlcNAc
# In short: as §1
# [5] = target: Neu5Ac(a2-3)Gal
# In short: as §1
# [6] = target: Neu5Ac(a2-3)Gal(b1-3)GalNAc
# In short: as §1
# [7] = target: Neu5Ac(a2-3)Gal(b1-3)GalNAc(b1-3)Gal(a1-4)Gal(b1-4)Glc
# In short: as §1
# [8] = target: Neu5Ac(a2-3)Gal(b1-3)GalNAc(b1-3)Gal(b1-4)GlcNAc
# In short: as §1
# [9] = target: Neu5Ac(a2-3)Gal(b1-3)GalNAc(b1-4)[Neu5Ac(a2-3)]Gal(b1-4)Glc
# In short: as §1
# [10] = target: Neu5Ac(a2-3)Gal(b1-3)GalNAc6S
# In short: as §1
# [11] = target: Neu5Ac(a2-3)Gal(b1-3)GlcNAc
# In short: as §1
# [12] = target: Neu5Ac(a2-3)Gal(b1-3)GlcNAc6S
# In short: as §1
# [13] = target: Neu5Ac(a2-3)Gal(b1-3)[Fuc(a1-4)]GlcNAc
# In short: as §1
# [14] = target: Neu5Ac(a2-3)Gal(b1-3)[Fuc(a1-4)]GlcNAc(b1-3)Gal(b1-4)[Fuc(a1-3)]GlcNAc
# In short: as §1
# [15] = target: Neu5Ac(a2-3)Gal(b1-3)[Neu5Ac(a2-3)Gal(b1-4)]GlcNAc
# In short: as §1
# [16] = target: Neu5Ac(a2-3)Gal(b1-3)[Neu5Ac(a2-6)]GalNAc
# In short: as §1
# [17] = target: Neu5Ac(a2-3)Gal(b1-4)Glc
# In short: as §1
# [18] = target: Neu5Ac(a2-3)Gal(b1-4)GlcNAc
# In short: as §1
# [19] = target: Neu5Ac(a2-3)Gal(b1-4)GlcNAc(b1-2)Man(a1-3)[Neu5Ac(a2-3)Gal(b1-4)GlcNAc(b1-2)Man(a1-6)]Man(b1-4)GlcNAc(b1-4)GlcNAc
# In short: as §1
# [20] = target: Neu5Ac(a2-3)Gal(b1-4)GlcNAc(b1-3)Gal(b1-4)GlcNAc
# In short: as §1
# [21] = target: Neu5Ac(a2-3)Gal(b1-4)GlcNAc(b1-3)Gal(b1-4)GlcNAc(b1-3)Gal(b1-4)GlcNAc
# In short: as §1
# [22] = target: Neu5Ac(a2-3)Gal(b1-4)GlcNAc(b1-3)Gal(b1-4)[Fuc(a1-3)]GlcNAc
# In short: as §1
# [23] = target: Neu5Ac(a2-3)Gal(b1-4)GlcNAc6S
# In short: as §1
# [24] = target: Neu5Ac(a2-3)Gal(b1-4)[Fuc(a1-3)]GlcNAc
# In short: as §1
# [25] = target: Neu5Ac(a2-3)Gal(b1-4)[Fuc(a1-3)]GlcNAc(b1-3)Gal
# In short: as §1
# [26] = target: Neu5Ac(a2-3)Gal(b1-4)[Fuc(a1-3)]GlcNAc(b1-3)Gal(b1-4)GlcNAc
# In short: as §1
# [27] = target: Neu5Ac(a2-3)Gal(b1-4)[Fuc(a1-3)]GlcNAc(b1-3)Gal(b1-4)[Fuc(a1-3)]GlcNAc(b1-3)Gal(b1-4)[Fuc(a1-3)]GlcNAc
# In short: as §1
# [28] = target: Neu5Ac(a2-3)Gal(b1-4)[Fuc(a1-3)]GlcNAc6S
# In short: as §1
# [29] = target: Neu5Ac(a2-3)Gal6S(b1-4)GlcNAc
# In short: as §1
# [30] = target: Neu5Ac(a2-3)Gal6S(b1-4)[Fuc(a1-3)]GlcNAc
# In short: as §1
# [31] = target: Neu5Ac(a2-3)GalNAc
# In short: as §1
# [32] = target: Neu5Ac(a2-3)GalNAc(b1-4)GlcNAc
# In short: as §1
# [33] = target: Neu5Ac(a2-3)[GalNAc(b1-4)]Gal(b1-4)Glc
# In short: as §1
# [34] = target: Neu5Ac(a2-3)[GalNAc(b1-4)]Gal(b1-4)GlcNAc
# In short: as §1
# [35] = target: Neu5Ac(a2-3)[Neu5Ac(a2-6)]GalNAc
# In short: as §1
# [36] = target: Neu5Ac(a2-6)Gal
# In short: as §1
# [37] = target: Neu5Ac(a2-6)Gal(b1-4)Glc
# In short: as §1
# [38] = target: Neu5Ac(a2-6)Gal(b1-4)GlcNAc
# In short: as §1
# [39] = target: Neu5Ac(a2-6)Gal(b1-4)GlcNAc(b1-3)Gal(b1-4)GlcNAc
# In short: as §1
# [40] = target: Neu5Ac(a2-6)Gal(b1-4)GlcNAc(b1-3)Gal(b1-4)[Fuc(a1-3)]GlcNAc(b1-3)Gal(b1-4)[Fuc(a1-3)]GlcNAc
# In short: as §1
# [41] = target: Neu5Ac(a2-6)Gal(b1-4)GlcNAc6S
# In short: as §1
# [42] = target: Neu5Ac(a2-6)GalNAc
# In short: as §1
# [43] = target: Neu5Ac(a2-6)GalNAc(b1-4)GlcNAc
# In short: as §1
# [44] = target: Neu5Ac(a2-8)Neu5Ac
# In short: as §1
# [45] = target: Neu5Ac(a2-8)Neu5Ac(a2-3)Gal(b1-4)Glc
# In short: as §1
binder,measurement,setting,value
B1,glycan array binding signal (z-score),[1],-0.167
same,glycan array binding signal (z-score),[2],-0.019
same,glycan array binding signal (z-score),[3],-0.145
same,glycan array binding signal (z-score),[4],-0.39
same,glycan array binding signal (z-score),[5],-0.262
same,glycan array binding signal (z-score),[6],-0.365
same,glycan array binding signal (z-score),[7],-0.287
same,glycan array binding signal (z-score),[8],-0.329
same,glycan array binding signal (z-score),[9],-0.363
same,glycan array binding signal (z-score),[10],-0.135
same,glycan array binding signal (z-score),[11],-0.256
same,glycan array binding signal (z-score),[12],-0.141
same,glycan array binding signal (z-score),[13],-0.264
same,glycan array binding signal (z-score),[14],-0.197
same,glycan array binding signal (z-score),[15],-0.311
same,glycan array binding signal (z-score),[16],-0.291
same,glycan array binding signal (z-score),[17],-0.384
same,glycan array binding signal (z-score),[18],0.598
same,glycan array binding signal (z-score),[19],-0.209
same,glycan array binding signal (z-score),[20],-0.284
same,glycan array binding signal (z-score),[21],-0.282
same,glycan array binding signal (z-score),[22],-0.324
same,glycan array binding signal (z-score),[23],-0.163
same,glycan array binding signal (z-score),[24],2.09
same,glycan array binding signal (z-score),[25],-0.338
same,glycan array binding signal (z-score),[26],-0.176
same,glycan array binding signal (z-score),[27],-0.185
same,glycan array binding signal (z-score),[28],-0.186
same,glycan array binding signal (z-score),[29],-0.21
same,glycan array binding signal (z-score),[30],-0.28
same,glycan array binding signal (z-score),[31],-0.397
same,glycan array binding signal (z-score),[32],0.016
same,glycan array binding signal (z-score),[33],-0.374
same,glycan array binding signal (z-score),[34],-0.276
same,glycan array binding signal (z-score),[35],-0.393
same,glycan array binding signal (z-score),[36],-0.322
same,glycan array binding signal (z-score),[37],0.011
same,glycan array binding signal (z-score),[38],-0.297
same,glycan array binding signal (z-score),[39],-0.386
same,glycan array binding signal (z-score),[40],2.24
same,glycan array binding signal (z-score),[41],-0.382
same,glycan array binding signal (z-score),[42],-0.245
same,glycan array binding signal (z-score),[43],-0.242
same,glycan array binding signal (z-score),[44],0.127
same,glycan array binding signal (z-score),[45],-0.196
